# Data as given in PubChem BioAssay AID1508624 (National Center for Advancing Translational Sciences (NCATS), 2021).
# Out of some 48,000 compounds screened, about 120 (0.25%) were called active. About 4% were inconclusive and are not listed. Calls follow the shape of the dose curve; as a rule, active = well fitted activation curve with a large enough effect; inconclusive = small, poorly fitted or top-dose-only effect, or another doubt; inactive = no such curve, though single readings can be large or run the other way. The list shows a part of the results.
# Assay: Primary qHTS for Identification of Small Molecule Activators of Huntingtin-Antisense Promoter Activity; also: nearly all actives have a fitted effect of over 55% in size
# Conditions: HEK293 HTT-AS promoter firefly luciferase reporter, 24 h; series mostly up to 57.5 µM; activity change, positive = activation: at the top concentration
# Outline: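 Quantitative HTS used concentration series of up to 57.5 uM final on HEK293 luciferase reporter cells, 24 h at 37 degrees C. Readout was Dual-Glo firefly luminescence.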
row,Structure (SMILES),"activity change, positive = activation"
1,Cc1ccc(/C=C/c2onc(C)c2S(=O)(=O)N2CCC(C(=O)NCc3ccc(OC(C)C)cc3)CC2)cc1,inactive: 13%
2,O=C(Cn1c(-c2cccs2)cc2cc(F)ccc21)NCCCN1CCN(c2ccc(F)cc2)CC1,inactive: -30.3%
3,COc1cccc(CNCCSc2nnnn2-c2ccccc2)c1OC,inactive: -3.95%
4,COc1ccc(-c2c(C)c3ccc(O)c(CN4CCCC4)c3oc2=O)cc1,inactive: 2.87%
5,CCc1ccc(NC(=O)CSc2ncc(S(=O)(=O)c3cc(C)ccc3C)c(=O)[nH]2)cc1,inactive: -1.19%
6,O=C(O)Cc1cn(-c2ccccc2)nc1-c1ccc(Cl)cc1,inactive: -12.1%
7,COc1ccc(CC(=O)NC2CC(=O)N(c3ccc(C)c(C)c3)C2)cc1OC (stereo not drawn),inactive: -18.3%
8,O=C(Cn1c(=O)oc2cc(S(=O)(=O)N3CCCCC3)ccc21)NCc1ccc(F)cc1,inactive: -48.8%
9,Cc1ccc(CNC(=O)CN2C(=O)C3(SCC(=O)N3c3ccc(F)c(F)c3)c3ccccc32)cc1 (stereo not drawn),inactive: 9.11%
10,COc1ccc(-c2nc(Cn3c(SCc4ccccc4F)nc4cccnc43)c(C)o2)cc1,inactive: -27.4%
11,COC(=O)c1c(NC(=O)c2ccc(S(=O)(=O)N(C)C3CCCCC3)cc2)sc2c1CCN(C)C2,inactive: -16.7%
12,O=NN(CCCl)C(=O)NC1CCCCC1,inactive
13,CCOC(=O)C(Cc1ccccc1)NC(=O)CCc1c(C)nc2c(c(C)nn2-c2ccc(C)c(C)c2)c1C (stereo not drawn),inactive: -7.69%
14,COC(=O)c1ccccc1NC(=O)C1CCCN(c2nnc(C)c3c(C)n(-c4ccccc4)nc23)C1 (stereo not drawn),inactive: -0.307%
15,O=C(CN1C(=O)CCc2cc(S(=O)(=O)N3CCCCC3)ccc21)NCc1ccc(Cl)cc1,inactive: -10.5%
16,COc1ccc(C2C=C(c3ccc(Br)cc3)Nc3nnnn32)c(OC)c1 (stereo not drawn),inactive: -24.9%
17,COc1ccc(Nc2cc(C(=O)NC3CCCC3)c3ccccc3n2)cc1,inactive: -15.3%
18,COc1ccccc1CNc1nc2c(S(=O)(=O)c3ccccc3)nnn2c2ccc(Cl)cc12,inactive: 17.5%
19,Cc1ccc(NC(=O)c2c(NC(=O)c3ccccc3Cl)sc3c2CCC3)cc1,inactive: -4.79%
20,O=C(CSc1nccn1Cc1ccc(F)cc1)NCc1ccc(F)cc1,inactive: -21.1%
21,CN1CCN(C(=O)Cn2ncc3c4ccccc4n(Cc4ccc(Cl)cc4)c3c2=O)CC1,inactive: -12.5%
22,Cc1cc(C)c(NC(=O)c2c(C)nn(-c3ccc(F)cc3)c2-n2cccc2)c(C)c1,inactive: -33.4%
23,CS(=O)(=O)N1CCc2cc(C(=O)N3CCN(c4ccccc4F)CC3)ccc21,inactive: -1.43%
24,Cc1ccccc1NC(=O)Cn1nnc(C(=O)NCCc2ccccc2)c1N,inactive: -5.58%

row,Structure (SMILES),"activity change, positive = activation"
1,O=C1Cc2cc(Cl)ccc2N1,inactive: -3.08%
2,O=C(NC1CCCCC1)c1ccc(CSc2nc3ccncc3n2Cc2ccc(F)cc2)cc1,inactive: -24.2%
3,CCc1nn2c(=O)c(S(=O)(=O)Nc3ccc(Br)cc3F)c(C)nc2s1,inactive: -24.6%
4,CC(=O)c1cccc(NC(=O)Cn2nc(C(F)(F)F)c3c2CCC3)c1,inactive: -17%
5,NC(=O)c1nn2c(C(F)(F)F)cc(-c3ccc(Br)cc3)nc2c1Cl,inactive: -28.8%
6,CSc1nc(=O)c2c(n1C)NC(=O)CC2c1cc(F)cc(F)c1 (stereo not drawn),inactive: -10.7%
7,Cc1ccc2nc(Cl)c3cc(C(=O)NCCCN(C)Cc4ccccc4)sc3c2c1,inactive: -12.7%
8,COc1ccc(-c2cc(C(F)(F)F)n3nc(C(=O)Nc4cc(C)ccc4C)cc3n2)cc1,"inactive: 8.75% [at 11.5 µM, percent change from vehicle, -100% = no light]"
9,Cc1ccc2c(c1)c1c3n2CCN(C(=O)c2ccc(C(F)(F)F)cc2)C3CCC1 (stereo not drawn),inactive: -20.7%
10,CC1=C(C(=O)OCc2ccc(C)cc2)C(c2cccc(F)c2F)CC(=O)N1 (stereo not drawn),inactive: -46%
11,CCOC(=O)c1sc2ccccc2c1S(=O)(=O)N1CCN(c2cc(C)ccc2C)CC1,inactive: -29.3%
12,COc1ccc(CCNC(=O)c2cc3c(=O)oc4ccc(C)cc4c3s2)cc1OC,inactive: -4.45%
13,CCNC(=O)c1cc2n(n1)CCCN(Cc1ccc(C)cc1)C2=O,inactive: 4.59%
14,COc1ccc(OCC(=O)Nc2ccc3nn(-c4ccc(OC)cc4)nc3c2)cc1,inactive: -36.4%
15,Cc1nn(C(=O)c2cccc(F)c2)c(C)c1S(=O)(=O)N1CCOCC1,inactive: -11.7%
16,CCc1ccc(S(=O)(=O)NCc2nc3cccnc3n2Cc2cccc(OC)c2)cc1,inactive: -22%
17,CCCCCn1c(CNC(=O)c2ccccc2)nc2ccccc21,inactive: -11.9%
18,CCOc1ccc(NC(=O)Cn2c(=O)n(CCCCC(=O)NCc3ccc4c(c3)OCO4)c(=O)c3ccccc32)cc1,inactive: -55.6%
19,CCN(CC)c1ccc(-n2nc3cc(C)c(NC(=O)c4ccccc4C)cc3n2)c(C)c1,inactive: -25.9%
20,Cc1ccccc1Cn1c(=O)n(CC2CCC(C(=O)N3CCOCC3)CC2)c(=O)c2sccc21 (stereo not drawn),inactive: -18.2%
21,Cc1cc(C)c(S(=O)(=O)N2CCN(Cc3ccc4c(c3)OCO4)CC2)cc1C,inactive: -17.6%
22,Cc1c(Cl)cccc1Nc1nn2c(=O)c3ccc(C(=O)NCCC4=CCCCC4)cc3nc2s1,inactive: -15.1%
23,COc1ccc(S(=O)(=O)c2nnn(-c3ccc(C(C)C)cc3)c2C)cc1,inactive: -43.8%
24,CCOC(=O)C1=C[C@]2(CC)CCCN3CCc4c(n1c1ccccc41)[C@@H]32,inactive
